Measured values published in the supplement of paper PMC4604168 (melanoma cell lines).
The other results are listed elsewhere or left out. Most values come without repeats; read them as rough.

Legend:
Assay in all cases: cell count relative to DMSO control; melanoma cells; higher = more viable cells
Conditions in all cases: library dose: low library concentration; 72 h
WM115 = tested on: WM115
WM1716 = tested on: WM1716
WM1745 = tested on: WM1745
WM3526 = tested on: WM3526
WM3619 = tested on: WM3619
WM451Lu = tested on: WM451Lu
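Further: cell number obtained by counting DAPI-stained nuclei in high-throughput microscope images with image analysis software, screen run in 1,536-well plates.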

SMILES	cell count (WM115) [%]	cell count (WM1716) [%]	cell count (WM1745) [%]	cell count (WM3526) [%]	cell count (WM3619) [%]	cell count (WM451Lu) [%]
CC(C)C[C@H](NC(=O)[C@H](Cc1ccccc1)NC(=O)c1cnccn1)B(O)O [Bortezomib] + C=C(c1ccc(C(=O)O)cc1)c1cc2c(cc1C)C(C)(C)CCC2(C)C [Bexarotene] (first compound 0.001 µM, partner dose 2 µM)	94.3	21.3	55.5	69.1	11.5	82.9
Cc1cc(Nc2cc(N3CCN(C)CC3)nc(/C=C/c3ccccc3)n2)n[nH]1 + C=CCNC1=C2C[C@@H](C)C[C@H](OC)[C@H](O)[C@@H](C)/C=C(\C)[C@H](OC(N)=O)[C@@H](OC)/C=C\C=C(/C)C(=O)NC(=CC1=O)C2=O [Tanespimycin] (first compound 0.04 µM, partner dose 0.002 µM)	86.2	98.9	100	96.1	105	113
CC(C)C[C@H](NC(=O)[C@H](Cc1ccccc1)NC(=O)c1cnccn1)B(O)O [Bortezomib] + C=CCn1c(=O)c2cnc(Nc3ccc(N4CCN(C)CC4)cc3)nc2n1-c1cccc(C(C)(C)O)n1 [MK1775] (first compound 0.001 µM, partner dose 0.02 µM)	78.7	40.5	74.1	80.1	41.2	95.2
Cc1cc(Nc2cc(N3CCN(C)CC3)nc(/C=C/c3ccccc3)n2)n[nH]1 + C=C(c1ccc(C(=O)O)cc1)c1cc2c(cc1C)C(C)(C)CCC2(C)C [Bexarotene] (first compound 0.04 µM, partner dose 2 µM)	91.4	94.7	84.8	95.6	108	109
Cc1cn(-c2cc(NC(=O)c3ccc(C)c(Nc4nccc(-c5cccnc5)n4)c3)cc(C(F)(F)F)c2)cn1 [nilotinib] + CC(C)C[C@H](NC(=O)[C@H](Cc1ccccc1)NC(=O)c1cnccn1)B(O)O [Bortezomib] (first compound 0.2 µM, partner dose 0.001 µM)	110	84.9	86.6	95.3	80.4	61.5
COc1ccc(C2=N[C@@H](c3ccc(Cl)cc3)[C@@H](c3ccc(Cl)cc3)N2C(=O)N2CCNC(=O)C2)c(OC(C)C)c1 [Nutlin-3] + COc1cc2ncnc(Nc3ccc(Oc4ccccc4)cc3)c2cc1OC [SrcI1] (first compound 0.1 µM, partner dose 2 µM)	89.9	95.5	88.9	90	93.4	93.1
COc1ccc(C2=N[C@@H](c3ccc(Cl)cc3)[C@@H](c3ccc(Cl)cc3)N2C(=O)N2CCNC(=O)C2)c(OC(C)C)c1 [Nutlin-3] + COCC[n+]1c2c(n(Cc3cnccn3)c1C)C(=O)c1ccccc1C2=O [YM155] (first compound 0.1 µM, partner dose 0.0004 µM)	95.7	93.9	93.1	98.2	95.1	78.7
Cc1cc(Nc2cc(N3CCN(C)CC3)nc(/C=C/c3ccccc3)n2)n[nH]1 + O=S(=O)(c1ccccc1)N(CC(F)(F)F)c1ccc(C(O)(C(F)(F)F)C(F)(F)F)cc1 [T0901317] (first compound 0.04 µM, partner dose 1.4 µM)	86.8	57.2	81.1	92	109	93.6
Cc1cn(-c2cc(NC(=O)c3ccc(C)c(Nc4nccc(-c5cccnc5)n4)c3)cc(C(F)(F)F)c2)cn1 [nilotinib] + COc1cc(Nc2ncc(F)c(Nc3ccc4c(n3)NC(=O)C(C)(C)O4)n2)cc(OC)c1OC [Tamatinib] (first compound 0.2 µM, partner dose 0.4 µM)	94.4	92.9	69.4	93	119	97.4
Cc1cc(Nc2cc(N3CCN(C)CC3)nc(/C=C/c3ccccc3)n2)n[nH]1 + CC(C)CCN1c2nc(Nc3cc(F)c(O)c(F)c3)ncc2N(C)C(=O)C1C [BID1870] (first compound 0.04 µM, partner dose 0.2 µM)	81.4	91.8	93.5	106	104	97
Cc1cn(-c2cc(NC(=O)c3ccc(C)c(Nc4nccc(-c5cccnc5)n4)c3)cc(C(F)(F)F)c2)cn1 [nilotinib] + O=C(O)c1ccc2c(c1)nc(Nc1cccc(Cl)c1)c1ccncc12 [CX4945] (first compound 0.2 µM, partner dose 0.4 µM)	102	83.2	86.7	87.7	99.8	101
COc1ccc(C2=N[C@@H](c3ccc(Cl)cc3)[C@@H](c3ccc(Cl)cc3)N2C(=O)N2CCNC(=O)C2)c(OC(C)C)c1 [Nutlin-3] + CCCS(=O)(=O)Nc1ccc(F)c(C(=O)c2c[nH]c3ncc(Cl)cc23)c1F [PLX4720] (first compound 0.1 µM, partner dose 0.08 µM)	104	110	116	99.5	116	107
